About 9,100 (2.8%) of roughly 320,000 compounds were called active. Inconclusive results, whose numbers are uncertain, are shown with a selection of clear calls. Calls follow the shape of the dose curve; as a rule, active = well fitted activation curve with a large enough effect; inconclusive = small, poorly fitted or top-dose-only effect; inactive = no such curve, though single readings can be large or run the other way. Potencies of inconclusive entries are left out as doubtful fits.
experiment: qHTS Assay for Rab9 Promoter Activators; details: Huh7 Rab9 promoter-luciferase reporter, luminescence, 24 h; series mostly up to 9.22 µM; also: nearly all actives have a fitted effect of over 60% in size
In short: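 Measured in stably transfected Huh7 cells bearing a Rab9 promoter–luciferase construct: 24 h compound treatment at 37 °C, followed by luminescence detection.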
Potency is read from the fitted curve at half-maximal effect; tags tell the direction and shape of the fitted curve.

Row | SMILES | Potency
1 | Cc1ccc(NCc2nc3ccccc3n2C)cc1C | active: 2.82 µM
2 | O=C(N/N=C/c1ccc(OC(=O)c2ccccc2Cl)cc1)c1ccccn1 | inconclusive [activator, partial curve]
3 | c1ccc2c(Nc3nc4c(s3)CCCC4)cccc2c1 | active: 3.55 µM
4 | COc1ccccc1Nc1nc(-c2cccc([N+](=O)[O-])c2)cs1 | inconclusive [activator, single point]
5 | CN1CCCCCC1=NC1=C(C#N)CCCC1 | inactive
6 | O=C(Cc1ccccc1)N/N=C/c1cc(Br)c(Br)o1 | inconclusive [activator, partial curve]
7 | COc1cccc(-c2nc(=S)c3c(o2)CCCC3)c1 | inconclusive [activator, single point]
8 | S=C(NCc1ccccn1)Nc1ccc(Br)cc1Cl | active: 3.16 µM
9 | CCc1ccc(/C=C/C(=O)C2C(=O)c3ccccc3C2=O)cc1 | inconclusive [activator, partial curve]
10 | Cc1ccc(NC(=O)Nc2cccnc2)cc1 | inconclusive [activator, single point]
11 | Cc1nn2cc(-c3ccc(Cl)cc3)nc2s1 | active: 0.316 µM
12 | O=C(N/N=C/c1ccncc1)c1cccc(N/N=C/c2ccncc2)c1 | inconclusive [activator, partial curve]
13 | Cc1ccc(C(CNS(=O)(=O)c2cc(F)ccc2F)N2CCN(C)CC2)cc1 (stereo not given) | inactive
14 | Cc1cccc(OCCCn2c(=O)oc3ccccc32)c1 | inactive
15 | Cc1ccc(OCC(=O)Nc2cccc(S(=O)(=O)NC3=NCCCCC3)c2)cc1C | inactive
16 | CC(C)(C)c1ccc(C(=O)NCCOc2ccccc2)cc1 | inconclusive [activator, full curve, poor fit]
17 | Cc1nc2ccc(C(=O)N/N=C/c3ccccc3O)cc2[nH]1 | inconclusive [activator, single point]
18 | CN1CCCN(C(=O)/C=C/c2ccc(Cl)cc2Cl)CC1 | inconclusive [activator, partial curve]
19 | Cc1ccsc1C(=O)NC1CCCCC1C (stereo not given) | inactive
20 | Cc1ccc(S(=O)(=O)NCCCCCC(=O)NCCc2ccccc2)cc1 | inconclusive [activator, single point]
21 | Cc1oc2cc3c(C(=O)N4CCCCC4)c(C)oc3cc2c1C(=O)N1CCCCC1 | inconclusive [activator, partial curve]
22 | COCCN=C1NN=C(c2cc(C)n(CC3CCCO3)c2C)CS1 (stereo not given) | inconclusive [activator, partial curve]
23 | Cc1csc(SCC(=O)Nc2sc3c(c2C#N)CCC3)n1 | inactive
24 | Cc1[nH]nc2ncc(C(=O)c3ccccc3O)cc12 | inactive
25 | CCCCCCCNC1=CC(=O)CC(c2ccccc2)C1 (stereo not given) | inactive
26 | COc1ccccc1C(=O)NNC(=O)c1ccc(C)cc1 | inconclusive [activator, partial curve]
27 | Cc1cc(=O)[nH]c(SCC(=O)Nc2nnc(CC(C)C)s2)n1 | inactive

Row | SMILES | Potency
28 | CCN(CC)c1ccc(C2C3CCCCC3(O)CCN2CC(=O)N2CCCCC2)cc1 (stereo not given) | inconclusive [activator, partial curve]
29 | O=C(NC(=S)Nc1cccc(O)c1)c1ccco1 | inconclusive [activator, single point]
30 | Cc1nc(N2N=C(c3ccc(Cl)cc3)CC2c2ccco2)sc1C(=O)N(C)C (stereo not given) | inactive
31 | NNc1nc2c(Cl)c(Cl)ccc2s1 | inconclusive [activator, single point]
32 | O=C(NCCc1ccccc1)c1cnc2ccccc2n1 | active: 1.41 µM
33 | O=C(Nc1nccs1)c1ccc(-c2ccc(Cl)cc2)o1 | active: 1 µM
34 | O=C(CS(=O)(=O)c1ccc(Cl)cc1)NCc1ccccc1 | inactive
35 | O=[N+]([O-])c1cccc(-c2nc(-c3ccccc3)no2)c1 | active: 3.98 µM
36 | CCc1ccc(NC(=S)NCc2ccccc2)cc1 | inconclusive [activator, single point]
37 | CC(=O)N1CCN(C(=O)c2ccc(-c3ccccc3Cl)o2)CC1 | inconclusive [activator, single point]
38 | O=C(Cc1ccccc1)NC(=S)Nc1ccc2oc(-c3ccccc3)nc2c1 | inconclusive [activator, partial curve]
39 | c1coc(-c2nnc(-c3ccc4c(c3)OCO4)o2)c1 | inconclusive [activator, single point]
40 | CC(=O)Nc1nc2cc(N)ccc2s1 | inactive
41 | CCc1ccc(C(=O)CN2CCSC2=N)cc1 | active: 0.708 µM
42 | CCNC(=S)NNC(=O)c1csc(C(C)C)c1 | inconclusive [activator, partial curve, poor fit]
43 | O=C(Nc1nc(-c2nc3ccccc3s2)cs1)C1CC1 | active: 0.708 µM
44 | COc1ccc(C(=O)N2CCN(c3nc4cc(C)ccc4cc3C#N)CC2)c(OC)c1 | inactive
45 | S=C(NCCc1ccccc1)Nc1ccccn1 | inconclusive [activator, single point]
46 | O=c1[nH]c(-c2cccnc2)nc2ccccc12 | inactive
47 | COc1cccc(OCc2cc(C(=O)N(C)Cc3nc4ccccc4[nH]3)no2)c1 | inconclusive [activator, partial curve]
48 | O=[N+]([O-])c1ccc2nc(-c3ccc(Cl)cc3)n(OCc3ccccc3)c2c1 | inconclusive [activator, partial curve]
49 | COc1ccc2[nH]c(=O)c(CN(CC3CCCO3)S(=O)(=O)c3ccccc3F)cc2c1 (stereo not given) | inactive
50 | CC(C)C(=O)Nc1ccc(NC(=O)c2cccc(F)c2)cn1 | active: 2.82 µM
51 | Cc1c(-c2ccccc2)n[nH]c1C(=O)NN | inconclusive [activator, single point]
52 | COc1ccc(-c2csc(NC3=NCCCCC3)n2)cc1 | inconclusive [activator, partial curve]
53 | CCN1CCN(C(=S)NCCc2ccccc2)CC1 | inconclusive [activator, partial curve]
54 | Cc1csc2nc(CNC(=O)c3ccco3)cn12 | inconclusive [activator, single point]

Row | SMILES | Potency
55 | Cc1cc(C)c(C#N)c(SCC(=O)Nc2ccc3c(c2)OCO3)n1 | inconclusive [activator, single point]
56 | C(=N\N=C\c1ccccc1)/c1ccccc1 | inactive
57 | CC(=O)c1c(C)[nH]c(C(=O)OCc2ccccc2F)c1C | inconclusive [activator, partial curve]
58 | COc1ccc(N2CCN(c3cnc4ccccc4n3)CC2)cc1 | inconclusive [activator, partial curve]
59 | NC(N)=NC(=O)c1nc(Cl)c(N2CCCCCC2)nc1N | inconclusive [activator, partial curve]
60 | COC(C(=O)Nc1ccc(C(N)=O)cc1)c1ccccc1 (stereo not given) | inactive
61 | O=C(CNC(=O)OCc1ccccc1)Nc1ccc(F)cc1 | inactive
62 | CC(=O)CSc1ccc(-c2nc3cc(C)c(C)cc3[nH]2)cn1 | inactive
63 | Cc1nc(-c2ccc(S(=O)(=O)Oc3ccc(Cl)cc3Cl)s2)cs1 | inconclusive [activator, single point]
64 | COCCn1c(C)cc(C(=O)COC(=O)c2ccc(NC(=O)CC#N)cc2)c1C | active: 2.24 µM
65 | CCCC(=O)Nc1sc(C(=O)Nc2cccc(N)c2)c(C)c1C(=O)OC | active: 0.891 µM
66 | COc1cccc(CN(C)C(=O)C(CCSC)NS(=O)(=O)c2ccc3c(c2)OCCO3)c1OC (stereo not given) | inactive
67 | O=C(NNC(=O)c1cccs1)c1ccc2ccccc2c1 | inconclusive [activator, partial curve]
68 | COC(=O)CSc1nnc(NC(=O)c2ccc3c(c2)OCO3)s1 | inconclusive [activator, single point]
69 | Cc1ccc(C)c(CNC(=O)Nc2ccccc2)c1 | inconclusive [activator, partial curve]
70 | CC(=O)c1c(C)[nH]c(C(=O)Nc2cccc(S(=O)(=O)N(C)C)c2)c1C | inconclusive [activator, full curve, poor fit]
71 | Cc1ccc(OCC(=O)O/N=C(\N)c2ccncc2)cc1C | inconclusive [activator, single point]
72 | O=C(NCc1cccc(Cl)c1)N1CCN(S(=O)(=O)c2ccccc2F)CC1 | inactive
73 | Cc1ccc(C(=O)NNC(=O)c2ccc3c(c2)OCCO3)cc1 | active: 3.98 µM
74 | N#C/C(=C\c1ccncc1)c1nc2c(s1)CCCC2 | inconclusive [activator, single point]
75 | COc1ccc(-c2oc3ccccc3c(=O)c2OC(C)=O)cc1 | inconclusive [activator, single point]
76 | CCc1sc(C(=O)Nc2nc(C)cs2)cc1C | inconclusive [activator, partial curve, poor fit]
77 | Cc1ccc(NC(=O)C2CCCN2C(=O)OCc2ccccc2)c(O)c1 (stereo not given) | inactive
78 | CCCCN(C(=O)NC(=O)Nc1nc2ccc(OC)cc2s1)S(C)(=O)=O | inconclusive [activator, partial curve]
79 | FC(F)Sc1ccc(Nc2ncnc3nc[nH]c23)cc1 | inconclusive [activator, partial curve]
80 | O=C(CSc1nnc(NC(=O)c2ccccc2F)s1)NC1CC1 | inconclusive [activator, partial curve]

— PubChem BioAssay AID485297 (National Center for Advancing Translational Sciences (NCATS), 2010)
